# The other results are listed elsewhere or left out.
# Tested on: PfSIP2 AP2 domain 1 (GST-tagged)
# Assay: gcPBM binding intensity (ln(normalized median fluorescence intensity)); higher = stronger DNA binding
# Outline: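 GST-tagged P. falciparum DNA-binding domains, expressed in E. coli (about 25 μg on average), were applied for 1 h to an Agilent 4 × 180k array of primer-extended double-stranded 36-bp intergenic genomic probes plus negative controls. The binding buffer was 1× PBS with 1% milk, 0.2 mg/ml BSA, 0.5% salmon testes DNA and 0.03% Triton X-100. Bound protein was detected with Alexa488 anti-GST antibody and scanned at 488 nm. Binding intensity is the highest Masliner-normalised natural-log median intensity across replicate spots of either probe orientation.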
row,Sequence,gcPBM binding intensity (ln)
1,GATAATTTATTTTTTCGTACACAAAATATAATATAT [XGTACX_site1470],7.28
2,TCGTGAGAAAATATTACACACATTTACTATAGTATC [CACACA_site3444],6.77
3,TTTTTTAAAGATTACTCAAAAAAATAAAAAAATAAA [GTGCAC_negctrl_site222],6.82
4,TGAGTTCAACAAAGACGTACAAAACCAAAAATATAA [XGTACX_site8931],7
5,TTTTTTTTTTTTTTTTGATACATTAACCTACAATGG [GTGCAC_negctrl_site625],6.95
6,AAAAATAAAAAAAGCACACACATATAAATAAATATA [CACACA_site6968],6.87
7,TAATTTTTCTTTTATTAACACACATATAAATAAATA [CACACA_site8935],7.04
8,CCCAATAATTAAACAACACACATATTTATAGGTAAT [CACACA_site7445],6.96
9,ATATATTTATATATTACACACAATATTGTAGACATA [CACACA_site4669],7.05
10,TATATGACAAGATAAAGTACAAATTTGTATATATAT [XGTACX_site3027],7.68
11,ATATATATACTGTGTACACAAATATATATTATATAT [CACACA_site6104],7.67
12,TAAAATAAAAAGTTTACACACATATATAATTTTAAT [CACACA_site662],6.7
13,AACCATTTTAAATATGCACACAGATGCACTAACACA [CACACA_site8565],11
14,GAATTATATAATTAAAGTACATTGTTTATATAATCA [XGTACX_site7246],7
15,TTTACACGTACGTGTACACACAAAAATATGTTTTTA [CACACA_site995],7.18
16,AAATTCCACGGACACACACACATATAAATAAATAAA [CACACA_site4811],7.52
17,TGTAGTCTGGAGAAAAGTACATAGTATCTGGTAGCT [XGTACX_site2031],6.94
18,GAAAGAAATAAAGGTGGTACATAAATAAAAACTAAG [XGTACX_site4826],7.38
19,ATTTATATGGTTTGCACACATAACAACTATGGTTAT [CACACA_site3632],7.22

row,Sequence,gcPBM binding intensity (ln)
1,AACATAAAAAAAATATGTACATATATAATATATATA [XGTACX_site3764],7.85
2,AAAAAAAATTTCTCAAGTACACAATTTTTTTTTGTT [XGTACX_site5874],6.85
3,TTTTTTTAAATATATAAGATAAATTTATAAATAAAT [XGTACX_negctrl_site282],6.58
4,TTTTATTTTTATAACAGTACATAAGTAATTGTTCAA [XGTACX_site7574],6.89
5,TTATAATAAAAAAATTCCTAAGTCCGTATATATTAT [CACACA_negctrl_site1698],6.72
6,TTTTATCATCACATTTGTCAAAAAAAAAAAAAAAAA [CACACA_negctrl_site1296],7.2
7,ATATCAAACTAGAATGTGCGCATGCATTCAAGTTTT,7.12
8,TTATGTTCATTATATGCACACATATATATAAATGTA [CACACA_site8947],7.47
9,GATTTTATAATTTCTACACACATATAAGAATATTCA [CACACA_site2802],7.02
10,AAATTTGGATGACTCAATAAATTATAATATATATAT [CACACA_negctrl_site298],8.72
11,ATATTCTTTATATGCATACACACCTAATATAGGGAC [CACACA_site1533],7.31
12,TTCAATTTTTTAAAGCGTACATATAAAAGTTATATG [XGTACX_site731],7.36
13,AATCATTTGTTATAAGTCTAAAATTATTAGAATATT [XGTACX_negctrl_site151],6.82
14,ATTATTACATATAATGCATGTGCATATATTTTTATA [TGCATGCA_site701],8.42
15,TATATTTTATATTAGTGTACAAATTTCATTTTTCAT [XGTACX_site2204],6.98
16,AATATATATAAAAAAGTGCATTAGGATAACCATATA [GTGCAC_site9590],8.13
17,TATATATATATATTCACACATATAGTATTGTATTTA [CACACA_site5147],9.25
18,ATATATTTATATTTGTGTACATATTTATTATATTTA [XGTACX_site404],7.34
19,AATATGAATATCTATACACACACATATATATACACA [CACACA_site8459],6.94

row,Sequence,gcPBM binding intensity (ln)
1,ATTTGTGACCACACAAATAAATAAATAAAAAAAAAA [TGCATGCA_negctrl_site328],6.94
2,TAATAATAGAAACACACACACATTTTTAATAATACA [CACACA_site1216],7.01
3,AAGAAGAAAAACCATTGTACGAACTAACATATATAA [XGTACX_site3226],6.91
4,GGTATACATAATACTTGTACTAGGCAACAATAAGAT [XGTACX_site1437],7.09
5,TGTTAAAAGAAAAAAAGTACAAAAAATTATACATTT [XGTACX_site467],6.8
6,AAATGTATATATGTATGTACATATATATATATATAT [XGTACX_site5778],9.37
7,AGTTTCTATTTAGTGTGTACTTAAGAAAAATATCTC [XGTACX_site82],7.34
8,ATAAACTGAGTGGTTACACACAAAACCAATAATTTT [CACACA_site3478],6.83
9,ATATATATATATATATGTACTCATATTTTATTATTT [XGTACX_site898],9.51
10,TCGCAAATAAATTAATGTACACATATATATATATAT [XGTACX_site5145],9.65
11,TATTGATAATTTTATATATACATACATAAATAAATA [CACACA_negctrl_site1687],6.65
12,TTTTCAATTTTTTATGAACACACAAAAAAAAAAAAA [CACACA_site8808],6.98
13,ATTTTTTTCCACTAGTGTACAAATTTTACATTGTGT [XGTACX_site5023],7.19
14,ACTAATGTAAAAGTTTGTACATATATTGAGAATTAT [XGTACX_site7439],7.02
15,CTATAATATTAGTGCACACACAAAAATGTACTAAAC [CACACA_site6442],11.3
16,AAGAAAAAAACAAAAAAAAAAAAAAAAATTCTTATT [TGCATGCA_negctrl_site504],6.63
17,TAAAAAAAAACAGAAACACACATTATTCATATAGAT [CACACA_site7052],6.67
18,GTTATAAATTTTTTTTTTTTTTTTTTTTTTTTTTTT [CACACA_negctrl_site848],8.65

# Reference: the supplement of paper PMC11417369
